Reference: PubChem BioAssay AID652104 (National Center for Advancing Translational Sciences (NCATS), 2013)
Screen size: about 410,000 compounds; about 7,200 (1.8%) were called active. Inconclusive results, whose numbers are uncertain, are shown with a selection of clear calls. Calls come from the whole dose curve; as a rule, active = well fitted activation curve with a large enough effect; inconclusive = small, poorly fitted or top-dose-only effect, or another doubt; inactive = no such curve, though single readings can be large or run the other way. A potency beside an inconclusive call is a rough fit, not a confirmed value.

Assay: qHTS of TDP-43 Inhibitors; note: nearly all actives have a fitted effect of over 50% in size; for growth rescue (activation): % of control where 0% means no effect
Settings: TDP-43 expressing yeast growth rescue, BacTiter-Glo, 24 h; growth rescue (activation): at 46.1 µM (top of the series) unless noted
Procedure, shortened: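 Growth rescue of TDP-43-toxic yeast measured as ATP luminescence (BacTiter-Glo). Cells grown to mid-log in raffinose, induced in galactose at OD600=0.02, exposed to compound 24 hr at 30 deg C.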
Potency is the fitted concentration of half-maximal effect; tags give direction and shape of the fitted curve.

Potency, active:
c1ccc(-c2ccc3[nH]ccc3c2)cc1 12.6 µM
Cc1ccc(C(=O)N2CCN(S(=O)(=O)c3cc(Br)ccc3Br)CC2)o1 20 µM
CN(Cc1ccccc1)c1nc(-c2cccc([N+](=O)[O-])c2)nc2ccccc12 14.1 µM

Potency, inconclusive:
COc1cccc(NC(=O)c2ccccc2NC(=O)c2ccncc2)c1 35.5 µM [activator, single point]
CCSc1nsc(NC(=O)Nc2ccccc2OC)n1 3.16 µM [activator, full curve]
CC1CCN(Cc2ccc(NC(=O)C3CCN(c4nnc(-n5cccc5)s4)CC3)cc2)CC1 10 µM [activator, partial curve]
CC(=O)c1cccc(NC(=O)CSc2ccc(-c3ccccn3)nn2)c1 22.4 µM [activator, single point]
Cc1nc(NC(=O)c2cccc(Cl)c2)sc1C(=O)N1CCCCC1 22.4 µM [activator, single point]
CCOc1ccccc1N1C(=O)CC(Sc2n[nH]c(-c3ccccc3)n2)C1=O (stereo not drawn) 6.31 µM [activator, single point]
O=C(NC1CCc2ccccc21)c1cc(COc2cncc(Cl)c2)on1 (stereo not drawn) 10 µM [activator, single point]
O=S(=O)(c1ccccc1)N1CCN(Cc2c(O)ccc3ccccc23)CC1 17.8 µM [activator, partial curve]
COc1ccc([C@H]2CC(=O)C=C(c3cccc(CO)c3)C2)cc1 35.5 µM [activator, single point]
C/C(=N\NC(=S)Nc1cc(S(=O)(=O)N2CCOCC2)ccc1Cl)c1ccccc1F 17.8 µM [activator, single point]
CCc1ccc(NC2=CC(=O)CC(c3ccco3)C2)cc1 (stereo not drawn) 10 µM [activator, partial curve]
C=C[C@]1(C)C=C2C(=O)C[C@H]3C(C)(C)CCC[C@]3(C(=O)O)[C@@]2(O)CC1 0.794 µM [activator, full curve, poor fit]
COc1ccccc1NC(=O)Cn1c(=O)n(CCc2ccccc2)c(=O)c2c3c(sc21)CN(C(C)=O)CC3 28.2 µM [activator, single point]
COc1cc(C#Cc2ccc3cc(CCCO)oc(=O)c3c2)cc(OC)c1 31.6 µM [activator, partial curve]
O=C1c2ccccc2C(Nc2ccc3c(c2)OCCO3)N1c1ccccn1 (stereo not drawn) 12.6 µM [activator, single point]
Cc1cccc(-c2nnc3sc(-c4ccccc4C)nn23)c1 28.2 µM [activator, single point]
CCn1c(=O)n(CC)c2cc(N3CCCC3)c(NC(=O)c3ccccc3OC)cc21 35.5 µM [activator, single point]
C[C@@]12CCC3[C@@](CCC4[C@@]3(C)CCC[C@@]4(C)C(=O)Nc3ccc(Cl)cc3)(CC1=O)C2 (stereo partly drawn) 14.1 µM [activator, partial curve]
O=C(CCSCc1ccccc1F)N1CCN(c2ccc(Cl)cc2)CC1 10 µM [activator, partial curve]
O=C(C1CCCN(S(=O)(=O)c2cccc3nsnc23)C1)N1CCCCCC1 (stereo not drawn) 11.2 µM [activator, partial curve]
Cc1cccc(NS(=O)(=O)c2ccc3c(c2)Cc2cc(S(=O)(=O)Nc4cccc(C)c4C)ccc2-3)c1C 5.62 µM [activator, partial curve, poor fit]
CCCCCCSc1ccc(-c2nc3cnccn3c2NCCCC)cc1 20 µM [activator, partial curve, poor fit]
CN(C)S(=O)(=O)c1cccc(NC(=O)c2ccncc2)c1 11.2 µM [activator, partial curve]
COc1ccc(N2CCN(C(=O)CCNS(=O)(=O)c3ccccc3)CC2)cc1 20 µM [activator, single point]
Cc1c(C(=O)Nc2ccc(F)cc2)nnn1-c1cccc(C(F)(F)F)c1 3.98 µM [activator, partial curve]
COC(=O)Cc1ccc(NC(=S)NCCSc2ccc(C)cc2)cc1 12.6 µM [activator, partial curve]
COc1ccc(-c2c(-c3ccccc3OC)sc3ccccc23)cc1OC 0.631 µM [activator, full curve]
CC1CCN(C(=O)/C(=C/c2ccccc2Cl)c2ccccc2)CC1 22.4 µM [activator, single point]
CCCCNc1c(-c2cc3ccccc3o2)nc2nc(C)cc(C)n12 15.8 µM [activator, partial curve]
Cc1cccc(N2CCN(c3nc(C)cc(C)c3C#N)CC2C)c1 (stereo not drawn) 20 µM [activator, single point]
O=C(c1ccc2[nH]c3c(c2c1)CCCC3)N1CCN(c2ccc(F)cc2)CC1 22.4 µM [activator, single point]

Growth rescue (activation), inactive:
O=C(O)CCCCCN1C(=O)/C(=C/c2cn(-c3ccccc3)nc2-c2cccs2)SC1=S -12%
COc1cccc(OC)c1C(=O)Nc1ccccc1N1CCCC1 5.93%
Cc1nnc(SCc2nc(-c3ccc(Cl)cc3)no2)n1-c1ccc(F)cc1 16.1%
CCc1ccc(N2C(=O)Cc3c2nc(N)c(C#N)c3N)cc1 -0.284%
CCOc1ccccc1NC(=O)c1sc2nc(-c3ccc(OC)cc3)ccc2c1N 1.64%
O=C(Nc1cccc(Cl)c1)c1nc[nH]c1C(=O)NCc1ccccc1 12.4%
CC1(C(=O)NS(=O)(=O)c2ccccc2)CCN1C(=O)c1ccccc1 (stereo not drawn) 0.758%
Cc1ccccc1C(=O)Nc1nnc(S(=O)(=O)N(C)Cc2ccc(Cl)cc2)s1 16.5%

Growth rescue (activation), inconclusive:
Cc1cccc(/C(N)=N/OC(=O)c2ccc3c(c2)OCO3)c1 -73.6% [activator]
